In PubChem BioAssay AID2060352 (Molecular Pharmacology Branch, DTP, NCI, 2025):
The source holds more than one record for some entries. Only these are listed. An entry can have further records. The values listed for one entry are repeated measurements across runs, samples, wells, individuals or studies. Dates in brackets are months of testing. Marks such as (2×) say how often a value occurs here.

Test system: 616215-338-R-J1-PDC spheroid with HUVEC/MSC, viability
Assay: Anticancer human tumor 616215-338-R-J1-PDC patient-derived colon adenocarcinoma cell line growth inhibition [TAK]
Details: for viability, T/C: stronger effect = lower value
Source text: Combinatorial screen of targeted agents with TAK-243 and ipatasertib in multi-cell type tumor spheroids
A high-throughput screen of multi-cell type tumor spheroids was designed to identify active combinations of targeted small molecules and TAK-243 or ipatasertib. Complex spheroids include a stromal component modeled by human endothelial cells (HUVEC) and fibroblasts modeled by human mesenchymal stem cells (MSCs). The concentration ranges selected for each drug and investigational agent were based upon clinically achievable concentrations if the clinical Cmax of the agent was known.
Compounds. The drugs and investigational agents: TAK-243 (785004), ipatasertib (767898), everolimus (733504), selumetinib (741078), bortezomib (756655), trametinib (758246), ixazomib (758254), vemurafenib (761431), dabrafenib (764134), sapanisertib (764658), alpelisib (765974), and copanlisib (816437), were obtained from the National Cancer Institute (NCI) Developmental Therapeutics Program Chemical Repository. The FDA-approved anticancer drug set is available from the NCI Developmental Therapeutics Program. […] The stock solutions were prepared in dimethyl sulfoxide (DMSO, Sigma-Aldrich, St. Louis, MO, cat. D2650) at 800-fold the tested concentration and stored at -70 degrees C prior to their use. All drugs and investigational agents were tested over a range starting from a high concentration at or near the clinical Cmax and decreasing in half-log increments. If the clinical Cmax for an agent had not been determined, the highest concentration tested was 10 microM.
NCI60 Cell Culture. NCI60 cell lines were obtained from the NCI Developmental Therapeutics Program Tumor Repository. For each lot of cells, the Repository performed Applied Biosystems AmpFLSTR Identifiler testing with PCR amplification to confirm consistency with the published Identifier STR profile for each cell line. Cells were kept in continuous culture for no more than 20 passages. The optimal seeding densities for each of the cell lines at each time point assessed were determined prior to performing the concentration response studies. Briefly, the NCI60 human tumor lines were grown as monolayers in RPMI 1640 medium supplemented with 10% FBS and 2 mmol/L L-glutamine.
An additional 2 lines were from the NCI60 cell line panel including melanomas, MALME-3M and SK-MEL-2. Pooled donor human umbilical vein endothelial cells (HUVEC, Lonza, cat. CC-2519) and human mesenchymal stem cells (hMSC, Lonza, cat. PT-2501) were purchased from Lonza (Walkersville, MD).
PDMR cell lines were grown in complete medium (DC medium): Dulbecco's modified Eagle's medium (DMEM)/F12 supplemented with 5% fetal bovine serum (FBS), 2 mM L-glutamine, 100 U/mL penicillin and 100 µg/ml streptomycin, 0.4 µg/ml hydrocortisone, 10 ng/ml epidermal growth factor (EGF) recombinant human protein, 24 µg/mL adenine, and 0.1 mg/mL primocin. During culture from frozen stock vials, PDMR cells were cultured in the same medium containing 10 µM Y-27632 (see Table 3). The PDCs were cultured in complete DMEM/F12 media without 10 microM Y-27632 dihydrochloride for at least two passages prior to the screen. The pooled donor HUVEC and hMSC were cultured in endothelial cell growth medium 2 (PromoCell, Heidelberg, Germany, cat. C-22011) and mesenchymal stem cell growth medium 2 (PromoCell, cat. C-28009), respectively. […]
For the pre-screen, cell seeding densities were determined from a titration spanning the range from 5,000 to 313 cells per well. […]
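Also: spheroids exposed to drugs for 7 days before readout.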

In the case of `CCCS(=O)(=O)Nc1ccc(F)c(C(=O)c2c[nH]c3ncc(-c4ccc(Cl)cc4)cc23)c1F`, the IC50 (compound alone) is reported as > 100 µM and 8.01 µM.

In the case of `CC(C)CC(NC(=O)C(Cc1ccccc1)NC(=O)c1cnccn1)B(O)O` (stereo not given), the viability, T/C (compound alone 0.01 µM) is reported as 91.3% [2020-02] and 0.26% [2020-03].

In the case of `CC(C)NCC(C(=O)N1CCN(c2ncnc3c2C(C)CC3O)CC1)c1ccc(Cl)cc1` (stereo not given), the viability, T/C (compound alone 0.3 µM) is reported as 100, 104, 97.7, 108, 95.1% [2020-02] and 124%, 121% (3×), 127% [2020-03], the viability, T/C (compound alone 0.949 µM) is reported as 109, 112, 110, 118, 114% [2020-02] and 120, 125, 141, 129% (2×) [2020-03] and the viability, T/C (compound alone 3 µM) is reported as 81.8, 87.7, 78.6, 91.5, 96.7% [2020-02] and 71.4, 57.4, 90, 55.1, 80.1% [2020-03].
